Results from PMC4336329 (PLoS ONE, 2015).
Screen size: about 310,000 compounds; about 2,200 (0.71%) showed an effect of 50% or more. Effects have a minus sign here. The list shows a part of the results.

The compounds below were run against human ether-à-go-go-related gene (hERG) potassium channel (human, UniProt Q12809) (assay: primary screen, population patch clamp on CHO cells stably expressing hERG).
human ether-à-go-go-related gene (hERG) potassium channel, sequence (Q12809 whole entry, looked up): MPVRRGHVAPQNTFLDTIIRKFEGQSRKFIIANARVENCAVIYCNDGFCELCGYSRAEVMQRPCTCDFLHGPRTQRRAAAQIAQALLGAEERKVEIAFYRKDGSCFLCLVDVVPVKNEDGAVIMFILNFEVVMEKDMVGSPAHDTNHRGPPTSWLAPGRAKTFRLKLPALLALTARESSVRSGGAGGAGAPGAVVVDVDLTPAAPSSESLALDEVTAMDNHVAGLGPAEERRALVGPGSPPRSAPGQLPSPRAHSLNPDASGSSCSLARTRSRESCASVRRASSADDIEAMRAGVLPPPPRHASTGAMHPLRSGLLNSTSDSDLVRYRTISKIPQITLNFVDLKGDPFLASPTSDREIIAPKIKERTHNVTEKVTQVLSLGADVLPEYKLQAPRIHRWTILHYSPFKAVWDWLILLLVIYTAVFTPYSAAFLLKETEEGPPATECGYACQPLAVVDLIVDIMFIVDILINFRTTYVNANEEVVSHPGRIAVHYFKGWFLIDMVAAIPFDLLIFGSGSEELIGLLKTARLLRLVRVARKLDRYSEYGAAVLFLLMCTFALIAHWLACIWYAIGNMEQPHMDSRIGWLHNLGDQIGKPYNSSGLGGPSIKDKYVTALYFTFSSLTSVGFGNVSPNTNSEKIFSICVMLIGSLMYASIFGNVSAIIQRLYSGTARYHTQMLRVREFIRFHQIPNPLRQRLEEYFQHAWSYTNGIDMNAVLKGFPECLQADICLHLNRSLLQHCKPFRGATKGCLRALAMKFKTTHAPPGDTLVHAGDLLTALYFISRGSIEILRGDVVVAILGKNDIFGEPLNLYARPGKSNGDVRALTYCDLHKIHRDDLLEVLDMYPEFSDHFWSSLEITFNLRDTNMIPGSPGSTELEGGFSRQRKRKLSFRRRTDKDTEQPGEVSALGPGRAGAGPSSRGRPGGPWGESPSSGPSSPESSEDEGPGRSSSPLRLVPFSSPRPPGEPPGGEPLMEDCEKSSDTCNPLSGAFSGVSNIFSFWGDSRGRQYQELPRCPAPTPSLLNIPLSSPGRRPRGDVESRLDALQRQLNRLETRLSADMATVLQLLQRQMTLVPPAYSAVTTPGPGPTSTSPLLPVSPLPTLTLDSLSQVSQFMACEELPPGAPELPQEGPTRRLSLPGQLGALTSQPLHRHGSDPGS

In order of rising “hERG current change (%, negative = inhibition) at 1uM” value:
1. C/C(=N/NC(=O)CNC(=O)C1COc2ccccc2O1)c1ccc([N+](=O)[O-])cc1 (stereo not drawn)  -42.3%
2. Cc1ccc2nc(-c3ccc(Br)o3)oc(=O)c2c1  -7.37%
3. O=C(CCS(=O)(=O)c1ccccc1)N1CCN(c2cccc(C(F)(F)F)c2)CC1  -6.12%
4. CCOc1ccc(Cl)cc1S(=O)(=O)N1CCC(C(=O)NCc2ccccn2)CC1  -4.95%
5. CC1CCCN(CCCNC(=O)c2ccc3c(c2)N(Cc2ccc(F)cc2)C(=O)c2ccccc2S3=O)C1 (stereo not drawn)  -1.27%
6. CCc1ccccc1NC(=O)C1CCN(c2cnccn2)CC1  -1.11%
7. CCNC(=S)N1CCN(C(=O)c2ccco2)CC1  -1.1%
8. O=C(COc1ccc(Br)cc1)N(Cc1ccco1)C1CCS(=O)(=O)C1 (stereo not drawn)  -0.659%
9. O=C(CN1C(=O)NC2(CCCc3ccccc32)C1=O)NC1CCCCC1 (stereo not drawn)  1.03%
10. CCOC(=O)c1c(-c2ccc(C)o2)csc1NC(=O)CN1CCN(CC)CC1  1.81%
11. Cc1ccc(-c2csc3nc(C)n(N)c(=O)c23)cc1  2.29%
12. Cc1cc(C)n2nc(SCC(=O)N3CCc4ccccc43)nc2n1  2.57%
13. CC1C/C(=N/NC(=O)c2cccc(F)c2)c2ccc(O)cc2C1 (stereo not drawn)  2.74%
14. O=C(Nc1ccc(Cl)cc1F)c1ccc(-n2cncn2)cc1  5.38%
15. O=C(CNC(=O)c1ccccc1F)OCC(=O)N1CCCCC1  5.56%
16. Brc1ccc(CN2CCN(c3ccccn3)CC2)s1  5.59%
17. O=C(NC1CCCCC1)c1cc(-c2ccc(O)cc2)on1  5.61%
18. COc1ccc(N2CCN(C(=O)C3CCCN(S(=O)(=O)c4cccc5cccnc45)C3)CC2)cc1 (stereo not drawn)  5.91%
19. N#Cc1nc(-c2ccccc2)oc1NCCCn1ccnc1  6.33%
20. COC(=O)CN1C(=O)[C@H]2[C@@H](c3ccc(C)o3)N3C(=O)CN(Cc4ccccn4)C(=O)[C@@]3(C)[C@H]2C1=O  6.42%
21. O=C(CCc1nnc(C2(c3ccc(Cl)cc3)CCC2)o1)NCCCn1cccn1  6.6%
22. N#CCCN(C(=O)COC(=O)CNS(=O)(=O)c1ccc2ccccc2c1)c1ccccc1  6.62%
23. COc1ccc(-n2c(=O)[nH]cc(C(=O)Nc3ccc4c(c3)OCCO4)c2=O)cc1  6.69%
24. c1ccc(-c2nc(CSc3n[nH]c(-c4cccs4)n3)cs2)cc1  6.69%
25. CCn1c2ccccc2c2cc(NC(=O)c3cc(OC)cc(OC)c3)ccc21  7.01%
26. CCCc1cc(=O)[nH]c(SCC(=O)Nc2ccc([N+](=O)[O-])cc2C#N)n1  7.16%
27. C=C(Cl)CSC(=S)N(CC)CC  7.94%
28. Cc1cccc(NS(=O)(=O)c2cc(C(=O)N3CCCC3)ccc2Cl)c1  8.12%
29. CC(C)(C)c1n[nH]c2c1CCCC2  8.71%
30. C=CCOc1ccccc1C1C2=C(CC(C)(C)CC2=O)Nc2c1c(=O)n(C)c(=O)n2C (stereo not drawn)  8.75%
31. COc1cc(C(=S)N2CCCC2)cc(Cl)c1O  8.87%
32. O=C(Oc1ccc(/C=N/NC(=O)c2ccccc2F)cc1)c1ccccc1  9.04%
33. COc1ccccc1NC(=S)N1CCN(Cc2ccccc2)CC1  9.8%
34. CC(C)c1ccc(C2CC(=O)c3cnc(NC(=O)c4ccco4)nc3C2)cc1 (stereo not drawn)  9.95%
35. COc1cccc(-c2cn(-c3cccc(C(F)(F)F)c3)c(=S)[nH]2)c1  10.7%
36. N#Cc1ccccc1Cn1cc(/C=N/Nc2ccc([N+](=O)[O-])cn2)c2ccccc21  10.8%
37. Cc1ccc(Oc2coc3cc(O)ccc3c2=O)cc1  10.9%
38. COc1ccc(C2C(C(=O)NCC3CCCO3)c3cc(OC)c(OC)cc3C(=O)N2C)cc1OC (stereo not drawn)  11.1%
39. COc1ccc(NS(=O)(=O)c2ccc(N3CC(O)=C(c4ccccc4)C3=N)cc2)cc1  11.3%
40. COc1cccc2c(=O)cc(C)n(CC(=O)Nc3ccc(Br)cc3)c12  11.7%
41. Cc1ccc(CNC(=O)CN(C(=O)C2(C)CC(=O)N=C3C=CC=CN32)c2ccccc2F)cc1 (stereo not drawn)  12.1%
42. CCc1ccc(OCC(=O)OCC(=O)c2ccc3c(c2)NC(=O)CO3)cc1  12.4%
43. O=S(=O)(NC(=S)c1ccccc1)c1ccc(F)cc1  12.6%
44. CC1=C(C(=O)Nc2ccc(Cl)cc2)C(c2ccncc2)C(C#N)=C(SCC(N)=O)N1 (stereo not drawn)  13.2%
45. Cc1cc(N2CCOCC2)n2nc(C)c(-c3ccccc3)c2n1  13.2%
46. Nc1nc(SCc2c(Cl)cccc2Cl)n[nH]1  13.6%
47. Cc1ccnc(NC(=O)c2ccc(Cl)s2)c1  14%
48. CC(NC(=O)c1cccs1)c1ccc(Br)cc1 (stereo not drawn)  14.3%
49. CC(C)CC(=O)N1CCN(S(=O)(=O)c2ccc(F)cc2)CC1  14.6%
50. CN(c1ccccc1)S(=O)(=O)c1cccc(NC(=O)c2cc(=O)c3ccccc3o2)c1  14.8%
51. CCCCN(C(=O)NC(=O)Nc1nc2ccc(OC)cc2s1)S(C)(=O)=O  15.2%
52. COc1ccccc1Nc1nc(C)cc(C)n1  15.3%
53. C1CCC2CCCCC2C1 (stereo not drawn)  15.3%
54. CCOc1ccc(-n2c(=S)sc3c(=O)[nH]c(SCC(=O)NC(C)CC)nc32)cc1 (stereo not drawn)  17.8%
55. COC/C=C/C1=CC2=CC(=O)C(C)(OC(=O)c3cccs3)C(=O)C2=CO1 (stereo not drawn)  19.7%
56. CC(C)CC(=O)Nc1ccc(-c2cn3cccnc3n2)cc1  30.1%
57. CN(C)S(=O)(=O)c1cccc2nsnc12  38.3%
